The record followed here is PMC11601910.

Amino acid sequences for entries named in this document (tags omitted). A change or cut given only in a name is not applied to a line headed by its entry. Residues count along the entry.
UniProt Q7Z434: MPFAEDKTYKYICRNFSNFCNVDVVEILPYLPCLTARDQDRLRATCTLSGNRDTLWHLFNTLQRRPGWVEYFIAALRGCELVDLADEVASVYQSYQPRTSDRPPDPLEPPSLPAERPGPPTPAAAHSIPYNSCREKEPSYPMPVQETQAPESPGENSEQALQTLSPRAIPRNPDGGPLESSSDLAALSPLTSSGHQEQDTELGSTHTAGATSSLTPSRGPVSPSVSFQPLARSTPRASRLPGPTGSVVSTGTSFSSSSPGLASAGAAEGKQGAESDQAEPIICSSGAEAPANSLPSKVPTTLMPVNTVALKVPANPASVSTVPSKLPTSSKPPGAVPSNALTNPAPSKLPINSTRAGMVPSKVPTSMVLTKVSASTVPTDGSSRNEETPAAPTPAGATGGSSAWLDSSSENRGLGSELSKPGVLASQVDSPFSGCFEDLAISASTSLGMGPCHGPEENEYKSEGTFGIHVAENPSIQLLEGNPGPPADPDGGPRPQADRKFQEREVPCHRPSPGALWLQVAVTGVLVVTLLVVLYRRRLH
MAVS ΔTM (aa 1–513): residues 1-513 of Q7Z434
MAVS (N) (aa 1–102): residues 1-102 of Q7Z434
MAVS (C) (aa 103–540): residues 103-540 of Q7Z434

Assay [1] has as its target T1, ZDHHC12 of Figure 3F (parent of the ZDHHC12 truncations) (UniProt Q96GR4).
T1 sequence: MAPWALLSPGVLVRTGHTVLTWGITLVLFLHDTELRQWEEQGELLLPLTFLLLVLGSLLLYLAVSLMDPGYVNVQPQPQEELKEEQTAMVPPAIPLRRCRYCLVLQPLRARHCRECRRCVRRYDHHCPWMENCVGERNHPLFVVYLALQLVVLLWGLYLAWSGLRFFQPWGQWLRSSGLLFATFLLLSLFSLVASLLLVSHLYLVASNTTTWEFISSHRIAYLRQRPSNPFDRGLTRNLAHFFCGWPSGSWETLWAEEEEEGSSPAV
Kind of assay: co-IP; HEK293T transfected with the tagged plasmids for 24 h; whole-cell lysates in low-salt lysis buffer (50 mM HEPES pH 8.0, 150 mM NaCl, 1 mM EDTA, 1.5 mM MgCl2, 10% glycerol, 1% Triton X-100); anti-FLAG beads or antibodies plus protein A/G beads, 4°C overnight; immunoblot. On the technique in general: A western blot detects proteins with antibodies after separation by electrophoresis.

Assay [2] has as its target FLAG-MAVS (wild type, full-length mitochondrial antiviral-signaling protein) (human) (UniProt Q7Z434). Described as above.
The target in assay [3] is MAVS (C) (aa 103–540) (human) (UniProt Q7Z434). The description is as above.
For assay [4], the target named is MAVS (N) (aa 1–102) (human) (UniProt Q7Z434). The assay is described as above.
Assay [5] has as its target MAVS ΔTM (aa 1–513) (human) (UniProt Q7Z434). The description is as above.
Assay [6] concerns the target endogenous MAVS of THP-1–derived macrophages (human (endogenous in THP-1)) (UniProt Q7Z434). Kind of assay: co-IP; endogenous proteins; THP-1–derived macrophages without SeV or IC poly(I:C) stimulation.
Assay [7] shares this target. Kind of assay: co-IP; endogenous proteins; THP-1–derived macrophages treated with SeV (MOI = 1) or IC poly(I:C) (5 μg/mL) for indicated time periods; also after siCtrl or siTRIM31 for 48 h and SeV for 12 h (association reduced by TRIM31 knock-down).
The target in assay [8] is CFP-MAVS WT / YFP-MAVS WT (human) (UniProt Q7Z434). Nature of the assay: FRET or BRET; HEK293T transfected with CFP-MAVS (donor) and YFP-ZDHHC12 (acceptor) for 24 h, SeV (MOI = 1) for 12 h; fixed cells, sensitized emission, Leica TCS SP8. On the technique in general: In BRET a luciferase serves as donor, and the signal depends on an acceptor being close.
Assay [9] has as its target T2, endogenous MAVS of mouse bone marrow–derived macrophages (mouse (endogenous in BMDMs)), Q8VCF0.
T2 chain: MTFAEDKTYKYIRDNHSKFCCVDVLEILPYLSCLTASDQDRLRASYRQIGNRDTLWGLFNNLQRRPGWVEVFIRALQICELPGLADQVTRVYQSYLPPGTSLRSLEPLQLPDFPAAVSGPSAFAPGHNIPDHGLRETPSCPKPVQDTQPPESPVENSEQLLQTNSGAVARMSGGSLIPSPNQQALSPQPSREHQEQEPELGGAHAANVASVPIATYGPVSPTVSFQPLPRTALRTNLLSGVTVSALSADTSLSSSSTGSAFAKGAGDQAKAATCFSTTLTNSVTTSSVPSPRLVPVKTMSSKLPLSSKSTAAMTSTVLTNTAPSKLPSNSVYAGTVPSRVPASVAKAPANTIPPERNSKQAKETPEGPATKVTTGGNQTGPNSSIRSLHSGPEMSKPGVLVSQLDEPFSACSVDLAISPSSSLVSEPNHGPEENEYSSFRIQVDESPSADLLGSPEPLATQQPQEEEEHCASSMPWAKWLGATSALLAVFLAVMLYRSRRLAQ
Kind of assay: SDD-AGE; endogenous MAVS; WT or ZDHHC12-KO THP-1–derived macrophages and Zdhhc12+/+ or Zdhhc12-/- BMDMs infected with SeV for indicated time periods (aggregation markedly decreased without ZDHHC12). As to conditions: remark: other sources report otherwise.

Results are given in words; binding and its absence hold for the method and conditions named. For part of these data: Binding seen in cells or lysates may run through a third protein. Some results given as binding are weak or reduced against the parent protein; the word gives no strength. For part of these data: Sequences can lack the tags named with a protein.

With HA-MAVS (from UniProt Q7Z434 1-540), in [1], the binding result was “binds”.

B1: HA-ZDHHC12 (enzyme, UniProt Q96GR4 1-267)
chain: MAPWALLSPGVLVRTGHTVLTWGITLVLFLHDTELRQWEEQGELLLPLTFLLLVLGSLLLYLAVSLMDPGYVNVQPQPQEELKEEQTAMVPPAIPLRRCRYCLVLQPLRARHCRECRRCVRRYDHHCPWMENCVGERNHPLFVVYLALQLVVLLWGLYLAWSGLRFFQPWGQWLRSSGLLFATFLLLSLFSLVASLLLVSHLYLVASNTTTWEFISSHRIAYLRQRPSNPFDRGLTRNLAHFFCGWPSGSWETLWAEEEEEGSSPAV
Regarding B1, the binding result is reported as “binds” in [2], “no binding” in [3], “no binding” in assay [4] and “no binding” in assay [5].

B2: endogenous ZDHHC12 of THP-1–derived macrophages (enzyme, UniProt Q96GR4 1-267)
chain: MAPWALLSPGVLVRTGHTVLTWGITLVLFLHDTELRQWEEQGELLLPLTFLLLVLGSLLLYLAVSLMDPGYVNVQPQPQEELKEEQTAMVPPAIPLRRCRYCLVLQPLRARHCRECRRCVRRYDHHCPWMENCVGERNHPLFVVYLALQLVVLLWGLYLAWSGLRFFQPWGQWLRSSGLLFATFLLLSLFSLVASLLLVSHLYLVASNTTTWEFISSHRIAYLRQRPSNPFDRGLTRNLAHFFCGWPSGSWETLWAEEEEEGSSPAV
Take B2: the binding entry in [6] is “binds weakly”; in assay [7], “binds”.

B3: YFP-ZDHHC12 (enzyme, UniProt Q96GR4 1-267)
chain: MAPWALLSPGVLVRTGHTVLTWGITLVLFLHDTELRQWEEQGELLLPLTFLLLVLGSLLLYLAVSLMDPGYVNVQPQPQEELKEEQTAMVPPAIPLRRCRYCLVLQPLRARHCRECRRCVRRYDHHCPWMENCVGERNHPLFVVYLALQLVVLLWGLYLAWSGLRFFQPWGQWLRSSGLLFATFLLLSLFSLVASLLLVSHLYLVASNTTTWEFISSHRIAYLRQRPSNPFDRGLTRNLAHFFCGWPSGSWETLWAEEEEEGSSPAV
B3: in assay [8], the binding result was “binds”.

B4: endogenous MAVS of mouse bone marrow–derived macrophages, Q8VCF0 1-503 (protein)
chain: MTFAEDKTYKYIRDNHSKFCCVDVLEILPYLSCLTASDQDRLRASYRQIGNRDTLWGLFNNLQRRPGWVEVFIRALQICELPGLADQVTRVYQSYLPPGTSLRSLEPLQLPDFPAAVSGPSAFAPGHNIPDHGLRETPSCPKPVQDTQPPESPVENSEQLLQTNSGAVARMSGGSLIPSPNQQALSPQPSREHQEQEPELGGAHAANVASVPIATYGPVSPTVSFQPLPRTALRTNLLSGVTVSALSADTSLSSSSTGSAFAKGAGDQAKAATCFSTTLTNSVTTSSVPSPRLVPVKTMSSKLPLSSKSTAAMTSTVLTNTAPSKLPSNSVYAGTVPSRVPASVAKAPANTIPPERNSKQAKETPEGPATKVTTGGNQTGPNSSIRSLHSGPEMSKPGVLVSQLDEPFSACSVDLAISPSSSLVSEPNHGPEENEYSSFRIQVDESPSADLLGSPEPLATQQPQEEEEHCASSMPWAKWLGATSALLAVFLAVMLYRSRRLAQ
With B4, the binding result in assay [9] is given as “binds”.
